# Assay results published in the supplement of paper PMC10369915.
# This is one part of the list. Rule as the data show it: active = 3.2 or more and inactive = the rest. The signal is at background level for most entries.
# Biological target: SHP2 C-SH2 domain E139D
# Test: enrichment score (SH2-bound / input frequency) (ratio); bacterial display of known human phosphotyrosine sites (pTyr-Var adds point mutants) read by sequencing; higher = stronger binding; tyrosines were phosphorylated by kinases first
# Conditions: peptide library: pTyr-Var
# 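Also: displayed peptides selected on beads carrying the immobilized SH2 domain, with library peptides lacking any tyrosine serving as negative controls.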
row,Binder,enrichment score
1,RAIELYNDKEK [OTULIN_Y244],inactive: 0.748
2,NGSKGYAFVHF [PABPC5_Y147_YF],inactive: 2.84
3,QLATEYVFSDF [PANX1_Y10],inactive: 1.16
4,FADIAYNFRRG [PAH_Y166_H170R_YF],inactive: 0.637
5,FADIAYNYRHR [PAH_Y166_G171R],inactive: 0.649
6,VPVDGYISGLL [PAK6_Y81_M76V],inactive: 0.928
7,GQDLFYEDEDL [PACS1_Y303],inactive: 0.694
8,SLHPGYNFRYA [P2RX7_Y291_Y288H],inactive: 1.14
9,HSYNSYTYPRL [PAK5_Y316],inactive: 1.26
10,SADIAYNYRHG [PAH_Y166_F161S],inactive: 0.871

# Biological target: SHP2 C-SH2 domain wild-type
# Test: as above
# Conditions: peptide library: pTyr-Var
row,Binder,enrichment score
1,RAIELYNDKEK [OTULIN_Y244],inactive: 0.617
2,NGSKGYAFVHF [PABPC5_Y147_YF],active: 4.75
3,QLATEYVFSDF [PANX1_Y10],inactive: 1.04
4,FADIAYNFRRG [PAH_Y166_H170R_YF],inactive: 0.548
5,FADIAYNYRHR [PAH_Y166_G171R],inactive: 0.607
6,VPVDGYISGLL [PAK6_Y81_M76V],inactive: 1
7,GQDLFYEDEDL [PACS1_Y303],inactive: 0.913
8,SLHPGYNFRYA [P2RX7_Y291_Y288H],inactive: 0.89
9,HSYNSYTYPRL [PAK5_Y316],inactive: 0.914
10,SADIAYNYRHG [PAH_Y166_F161S],inactive: 0.659

# Biological target: SHP2 N-SH2 domain L43F
# Test: as above
# Conditions: peptide library: pTyr-Var
row,Binder,enrichment score
1,RAIELYNDKEK [OTULIN_Y244],inactive: 0.858
2,NGSKGYAFVHF [PABPC5_Y147_YF],active: 4.35
3,QLATEYVFSDF [PANX1_Y10],inactive: 1.13
4,FADIAYNFRRG [PAH_Y166_H170R_YF],inactive: 0.511
5,FADIAYNYRHR [PAH_Y166_G171R],inactive: 0.584
6,VPVDGYISGLL [PAK6_Y81_M76V],inactive: 0.928
7,GQDLFYEDEDL [PACS1_Y303],inactive: 0.818
8,SLHPGYNFRYA [P2RX7_Y291_Y288H],inactive: 1.15
9,HSYNSYTYPRL [PAK5_Y316],inactive: 1.01
10,SADIAYNYRHG [PAH_Y166_F161S],inactive: 0.715

# Biological target: SHP2 N-SH2 domain T42A
# Test: as above
# Conditions: peptide library: pTyr-Var
row,Binder,enrichment score
1,RAIELYNDKEK [OTULIN_Y244],inactive: 0.634
2,NGSKGYAFVHF [PABPC5_Y147_YF],active: 8.08
3,QLATEYVFSDF [PANX1_Y10],inactive: 1.01
4,FADIAYNFRRG [PAH_Y166_H170R_YF],inactive: 0.525
5,FADIAYNYRHR [PAH_Y166_G171R],inactive: 0.488
6,VPVDGYISGLL [PAK6_Y81_M76V],inactive: 0.709
7,GQDLFYEDEDL [PACS1_Y303],inactive: 0.832
8,SLHPGYNFRYA [P2RX7_Y291_Y288H],inactive: 0.905
9,HSYNSYTYPRL [PAK5_Y316],inactive: 0.868
10,SADIAYNYRHG [PAH_Y166_F161S],inactive: 0.617

# Biological target: SHP2 N-SH2 domain T52S
# Test: as above
# Conditions: peptide library: pTyr-Var
row,Binder,enrichment score
1,RAIELYNDKEK [OTULIN_Y244],inactive: 0.659
2,NGSKGYAFVHF [PABPC5_Y147_YF],active: 5.21
3,QLATEYVFSDF [PANX1_Y10],inactive: 1.08
4,FADIAYNFRRG [PAH_Y166_H170R_YF],inactive: 0.643
5,FADIAYNYRHR [PAH_Y166_G171R],inactive: 0.564
6,VPVDGYISGLL [PAK6_Y81_M76V],inactive: 0.755
7,GQDLFYEDEDL [PACS1_Y303],inactive: 0.929
8,SLHPGYNFRYA [P2RX7_Y291_Y288H],inactive: 1.12
9,HSYNSYTYPRL [PAK5_Y316],inactive: 1.12
10,SADIAYNYRHG [PAH_Y166_F161S],inactive: 0.671

# Biological target: SHP2 N-SH2 domain wild-type
# Test: as above
# Conditions: peptide library: pTyr-Var
row,Binder,enrichment score
1,RAIELYNDKEK [OTULIN_Y244],inactive: 0.683
2,NGSKGYAFVHF [PABPC5_Y147_YF],inactive: 1.78
3,QLATEYVFSDF [PANX1_Y10],inactive: 1.11
4,FADIAYNFRRG [PAH_Y166_H170R_YF],inactive: 0.621
5,FADIAYNYRHR [PAH_Y166_G171R],inactive: 0.798
6,VPVDGYISGLL [PAK6_Y81_M76V],inactive: 0.927
7,GQDLFYEDEDL [PACS1_Y303],inactive: 0.902
8,SLHPGYNFRYA [P2RX7_Y291_Y288H],inactive: 1
9,HSYNSYTYPRL [PAK5_Y316],inactive: 1.02
10,SADIAYNYRHG [PAH_Y166_F161S],inactive: 0.8
